# Measured values from the supplement of paper PMC11417369.
# This is one part of the list.
# System: PfAP2-HC AP2 domain (GST-tagged)
# Test: gcPBM binding intensity (ln(normalized median fluorescence intensity)); higher = stronger DNA binding
# Summary of the method: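 Probes on an Agilent 4 × 180k array were primer-extended, double-stranded and 36 bp long, taken from intergenic genomic regions, with negative controls added. GST-tagged P. falciparum DNA-binding domains from E. coli, about 25 μg on average, were applied to the array for 1 h in 1× PBS containing 1% milk, 0.2 mg/ml BSA, 0.5% salmon testes DNA and 0.03% Triton X-100. Binding intensity, obtained after Alexa488 anti-GST antibody detection and a 488 nm scan, is the highest Masliner-normalised natural-log median intensity across replicate spots of either probe orientation.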
row,Sequence,gcPBM binding intensity (ln)
1,AAAAATATATAACAAAGTACATATATATTTAGTAAT [XGTACX_site8791],9.85
2,GGAAAAAAACTTATGAGTACACATAAATATAGCACA [XGTACX_site6686],9.66
3,AAAAAAATTAAATCAAGTACTCATTCTTAAATTATA [XGTACX_site1274],9.31
4,TATATTTTCTATAGGTGTACTCCACATGCGGTGTTA [XGTACX_site7471],9.55
5,ATATTGATACATCCAATACACACTACATATAATGAT [CACACA_site1874],9.98
6,TCCCTCTTTTTATTCTCACACACGTTTATATATAAA [CACACA_site1644],10
7,ATATATGATGTAAAAGCACACATATATATATATATA [CACACA_site9330],9.64
8,AATATATATAAATATTGTACAAAAATATATATATAT [XGTACX_site2910],9.68
9,AAACATCTTTACAACGTCCCTCCTTTTTTATGTACC [GTGCAC_negctrl_site528],9.79
10,ATTTTATTCTAAAAAGGTACACATATTATTTTATGA [XGTACX_site7233],9.31
11,TAAATAAGGAAGGAAACACACATTAAAAAATAAATA [CACACA_site618],9.87
12,AACAGAAGCACATACACACACTCAAAAAAAAAAAAA [CACACA_site5652],10
13,TCTTACTAATATCGCACACACATATGTAGACGGGAT [CACACA_site87],10.3
14,TATTTATATGGACACACACACATATAAATAAATAAA [CACACA_site6346],10.2
15,ATGGCCATAATATAGACACACATATATAAATATATA [CACACA_site2230],9.76
16,CGATATGTTCAATATTGTACTATTTATAATAATATG [XGTACX_site3051],9.57
17,TATTGACAAAATAGCTGTACAAATTAAAAGAAATAA [XGTACX_site4415],9.55
18,CTTAAAAAAAAAAAATGTACACATAAAAAAAATACA [XGTACX_site6700],9.6
19,TTTAATTGATAATGAAGACAATTATATGCATCCAAA [TGCATGCA_negctrl_site138],9.49

row,Sequence,gcPBM binding intensity (ln)
1,TTATTGTCTTCTCATATACACACTTTTATGACTATC [CACACA_site3142],9.97
2,ATAATAATATATATTACACACGCATCGTTCATTTAT [CACACA_site8752],9.94
3,ATTAATATATATGGATGTACTTATGTATGTATGCAT [XGTACX_site2263],9.68
4,GGAAAAACCATTCGCACACACACATAATATATAATA [CACACA_site1424],10.2
5,CATGTATAATATAATACACACTATATAATATACACC [CACACA_site5267],9.92
6,ATATCATTAAAAGGATGTACATATGTGTATACAATA [XGTACX_site871],9.84
7,TAATATCTAAAAAATATATTTTTTATTTTTTATTAA [CACACA_negctrl_site510],9.43
8,TACATACATACATACACACACACATATATATACATA [CACACA_site853],11
9,AATTTAAAATAATATTGTACTTAGATATAAATATGA [XGTACX_site4198],9.47
10,TAAAAAATATAAACTGCACACACAAAAAAAAAAGAG [CACACA_site8379],10.3
11,ATGGTACACAAATATACATGCAATAATAAAAAAAAA [TGCATGCA_site879],9.73
12,TTTTTATTACATAATTAAAAAAAATAATAAAATAAA [XGTACX_negctrl_site249],9.27
13,ATATATATATATTTATGTACTTAATAATTTATTCAC [XGTACX_site7301],9.65
14,TTTTTTTTTTAATTCGCACACTGTCTTCATACAATT [CACACA_site1379],10.2
15,TGCAGTCTGGAGAAAAGTACATAGTATCTGGTAACC [XGTACX_site2019],9.52
16,TCATTTCACGGACACACACACACAATATATTTCCTT [CACACA_site6023],10.9
17,AAAAAATATTTTTACAGTACATATATATAAAATGTT [XGTACX_site3215],9.6
18,TAACAAAGGAAAGATATACACACGTATGCATGATAA [CACACA_site2520],10.1
19,CATTAATATATATATACATGCACGTTTTAAAAAAAA [TGCATGCA_site875],9.58

row,Sequence,gcPBM binding intensity (ln)
1,ATGGGAATATAATTATGTACATATAAAAATTATAAA [XGTACX_site5336],9.6
2,TAATTATGCAGACACACACACACACGCAACTAAAAA [CACACA_site7253],10.5
3,GTGTAAATAAGGATATATAACAATCAACAAAACATA [CACACA_negctrl_site1759],9.9
4,TGTATGAAATATATTACACACATATATAATATATAT [CACACA_site793],9.8
5,ATATTTTTCAAACATCGTACATTATGAGTTAAAATT [XGTACX_site584],9.34
6,ATACACAAAATTATTAAATCAATAAATATATGGTTT [CACACA_negctrl_site353],9.57
7,AAAATACATAAATGTTCACACATTAAAAAGCAGAAG [CACACA_site5346],9.88
8,TTTATAAAGAAACACACACACATGTGAACATAAAAA [CACACA_site1908],10.2
9,TATGTCAGATGAAAGGGTACATAATATAATATATTT [XGTACX_site8062],9.55
10,TTATAAATGAATAAATGTACAAAATATATATATATA [XGTACX_site8829],9.66
11,CATAACATAAAATAGGTGCACAAAAATTGTAATTGA,10.3
12,CACACCCACCAACACACACACACACCCACCCATATA [CACACA_site366],11
13,TTGTAATATATGTATTGTACGCATATAACAATTATT [XGTACX_site3652],9.62
14,TTCAGTGTATACATATGTACATATATATATATATAT [XGTACX_site1621],10
15,ATTTTTATTTGTTACGCATGCATAAAAGTGCATACT [TGCATGCA_site547],9.63
16,ATTTGTAATATTAAATGTACAGGTAAGAAATATCAG [XGTACX_site1562],9.71
17,TAAGGAAAAAAAATATGTACTTATAGTTCCTTCTTT [XGTACX_site2202],9.62
18,TAAATATATTTATACACACACACCAAAGCAATAGAT [CACACA_site7393],10.5
19,GGATTCAAAAAAAAAAATAAAAGTAAATAATAAATA [TGCATGCA_negctrl_site348],9.41
